Experimental data reported in PubChem BioAssay AID686978 (National Center for Advancing Translational Sciences (NCATS), 2013).
Where “and” joins values, the source holds several entries; their conditions need not be identical. Equal entries are not always repeated. The whole screen tested about 420,000 compounds, of which about 64,000 (15%) were called active. The inconclusive results got no clear call from the source; some entries with a clear call stand among them for comparison. Calls follow the shape of the dose curve; as a rule, active = well fitted inhibition curve with a large enough effect; inconclusive = small, poorly fitted or top-dose-only effect; inactive = flat fitted curve, though single readings scatter. Where the call is inconclusive, the potency comes from a doubtful curve fit.

experiment: qHTS for Inhibitors of human tyrosyl-DNA phosphodiesterase 1 (TDP1): qHTS in cells in absence of CPT; conditions: DT40 Tdp1-/- hTDP1 cells, no CPT, ATP luminescence, 48 h; series mostly up to 46.2 µM; also: nearly all actives have a fitted effect of over 55% in size
Outline: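 Luminescent ATP content (CellTiter-Glo) served as the growth readout. Knockout chicken DT40 cells expressing human TDP1 were exposed to compounds without camptothecin for a minimum 48 hr at 37 °C.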
Potency is read from the fitted curve at half-maximal effect; tags tell the direction and shape of the fitted curve.

| SMILES | Potency |
| --- | --- |
| COCCOC(=O)C1=C(C)N=c2s/c(=C\c3cccs3)c(=O)n2C1c1cccs1 (stereo not given) | inconclusive: 18.4 µM [inhibitor, partial curve, poor fit] |
| Cc1ccc(O)c(C(=O)c2cc(C#N)c(=O)n(-c3nccs3)c2)c1 | inconclusive: 29.1 µM [inhibitor, single point] |
| O=C(Nc1ccc2oc(-c3cccnc3)nc2c1)c1cc2ccccc2o1 | inactive |
| CCCCc1ncc(/C=C(\Cc2cccs2)C(=O)O)n1Cc1ccc(C(=O)O)cc1 | inactive |
| NC(=O)/C=C\c1cn(-c2ccccc2)nc1-c1ccc2c(c1)OCCO2 | inconclusive: 16.4 µM [inhibitor, single point] |
| COc1cccc(OC)c1OCCN1CCN(C(=O)c2ccco2)CC1 | inconclusive: 18.4 µM [inhibitor, single point] |
| NC(=O)c1ccsc1NC(=O)COC(=O)CNC(=O)c1cccc([N+](=O)[O-])c1 | inactive |
| O=C(Nc1ccc(S(=O)(=O)NCc2ccccc2)cc1)C1CCCCC1 | inconclusive: 16.4 µM [inhibitor, single point] |
| Cc1ccc(C)c(CNC(=O)CN2C(=O)CSc3ccc(S(=O)(=O)N(C)C)cc32)c1 | inconclusive: 9.2 µM [inhibitor, partial curve, poor fit] |
| CCn1c(SCC(=O)Nc2ccc(C(C)=O)cc2)nc2ccccc21 | inconclusive: 18.4 µM [inhibitor, single point] |
| O=C(C[C@@H]1C/C=C\C[C@H](Cc2ccc(F)cc2)C(=O)OC[C@@H]2CCCN2C1=O)N[C@H](CO)Cc1ccccc1 | active: 16.4 µM |
| N#Cc1cc(C(=O)c2cc(Cl)ccc2O)cn(-c2ccccc2)c1=O | inactive |
| Cc1snnc1C(=O)NC(=S)Nc1ccccc1 | active: 13 µM |
| CCOC(=O)C(Oc1ccc2c(-c3ccccc3)cc(=O)oc2c1C)c1ccccc1 (stereo not given) | inconclusive: 29.1 µM [inhibitor, single point] |
| Cn1cccc1C(=O)NC(=O)COC(=O)c1ccc(S(C)(=O)=O)c([N+](=O)[O-])c1 | active: 3.26 µM and active: 4.47 µM |
| CCC(NC(=O)OCc1ccccc1)C(=O)Oc1ccc2ccc(=O)oc2c1 (stereo not given) | inconclusive: 6.51 µM [inhibitor, partial curve, poor fit] |
| Clc1ccc(Nc2nc(-c3ccncc3)cs2)cc1 | inactive |
| Cc1cc(N2CCC(C)CC2)nc2ccc(NC(=O)CCC(=O)N3CCN(c4ccccc4F)CC3)cc12 | active: 14.6 µM |
| CC(=O)c1c(C)[nH]c(C(=O)OCC(=O)NCc2cccs2)c1C | inconclusive: 20.6 µM [inhibitor, partial curve] |
| CSCc1c(C(=O)N2CCCc3ccccc32)oc2ccccc12 | inconclusive: 25.9 µM [inhibitor, single point] |
| N[C@@H](Cc1ccc(O)c(O)c1)C(=O)O | inactive |
| CCc1ccc(NC(=O)Cn2c(=O)n(CCc3ccccc3)c(=O)c3sc4ccccc4c32)cc1 | inconclusive: 6.51 µM [inhibitor, single point] |
| Cc1cc(C(=O)CCl)c(C)n1CCc1ccccc1 | active: 4.61 µM |
| COc1ccc(S(=O)(=O)N(CCc2ccccc2)CC(=O)Nc2cc(C)cc(C)c2)cc1OC | inconclusive: 16.4 µM [inhibitor, single point] |
| CCCCCCC(=O)N(O)C1CC(=O)N(c2ccc(C)cc2)C1=O (stereo not given) | active: 5.8 µM |

| SMILES | Potency |
| --- | --- |
| C=CCn1c(SCC(=O)Nc2ccccc2)nc2scc(-c3cccs3)c2c1=O | inconclusive: 20.6 µM [inhibitor, single point] |
| O=C(Nc1cccc(C(=O)N2CCOCC2)c1)C1CCCCC1 | inactive |
| COCCCNC(=S)N1CCN(S(=O)(=O)c2ccc(OC)cc2)CC1 | inconclusive: 7.31 µM [inhibitor, single point] |
| COc1ccccc1N1CCN(S(=O)(=O)CCNC(=O)C(c2ccccc2)c2ccccc2)CC1 | inconclusive: 20.6 µM [inhibitor, single point] |
| Cc1cccc(NC(=O)CSc2nc3nc(C)cc(C)n3n2)c1 | inactive |
| CC(OC(=O)CCN=C1NS(=O)(=O)c2ccccc21)C(=O)Nc1ccc(N(C)C)cc1 (stereo not given) | inactive |
| Cc1ccc(C)c2[nH]c(=O)c(CN(CCN3CCCC3)C(=O)Nc3cccc(Cl)c3)cc12 | active: 18.4 µM |
| O=C(NC(=S)N1CCOCC1)c1cn(-c2ccccc2)nc1-c1ccc(F)cc1 | inconclusive: 25.9 µM [inhibitor, single point] |
| CN1CCN(Cc2ccc(-c3ccc(Cl)cc3)o2)CC1 | inconclusive: 29.1 µM [inhibitor, single point] |
| COc1ccc(C=NNC(=O)CCCC(=O)NN=Cc2ccc(OC)c(OC)c2)cc1OC | inactive |
| CCOC(=O)c1ccc(S(=O)(=O)N2CCN(C)CC2)cc1 | inactive |
| COc1ccccc1NC(=S)NC1CCCC1 | inactive |
| O=C(C1=C[C@@H](c2ccc(Br)cc2)C[C@@H](OCCCCO)O1)N1CCOCC1 | inactive |
| CCOc1ccc(/C(C)=N\NC(=O)Cc2ccccc2)cc1 | inactive |
| S=c1[nH]nc(C2COc3ccccc3O2)o1 (stereo not given) | inactive |
| COc1ccc(-n2nnnc2SCC(=O)NCCc2ccc(OC)c(OC)c2)cc1 | inconclusive: 17.8 µM [inhibitor, single point] |
| Cc1ccc(NC(=O)CN(c2ccc(C)cc2)S(=O)(=O)c2cccc3nonc23)cc1 | inconclusive: 23.1 µM [inhibitor, single point] and inconclusive: 29.1 µM [inhibitor, single point] |
| COc1ccc(C(=O)N2CCC[C@@]3(CCN(c4ccncc4)C3)C2)cc1 | inactive |
| CN(C(=O)c1ccc(Oc2ccc([N+](=O)[O-])cc2)cc1)C1CCCCC1 | active: 23.1 µM |
| CC(=O)Nc1cccc(Nc2nc(-c3cccs3)nc3ccccc23)c1 | active: 8.2 µM |
| C=CCOc1ccc(C(c2c(C(=O)O)[nH]c3ccccc23)c2c(C(=O)O)[nH]c3ccccc23)cc1 | inactive |
| CN(C)C(=O)/C(=C\c1cccc(Oc2ccccc2)c1)NC(=O)c1ccccc1 | inconclusive: 18.4 µM [inhibitor, single point] |
| CCOc1ccc(-c2nc(CN3CCCC(C(=O)N4CCOCC4)C3)c(C)o2)cc1 (stereo not given) | inactive |
| CCOc1ccccc1NC(=O)CCc1c(C)nc2cc(-c3ccccc3)nn2c1C | active: 11.6 µM |
| O=C(COC(=O)C1CCCN1C(=O)c1cccs1)c1ccccc1 (stereo not given) | inconclusive: 7.31 µM [inhibitor, partial curve, poor fit] |

| SMILES | Potency |
| --- | --- |
| Cc1ccccc1/C=N/NC(=O)c1ccc(-n2cnnn2)cc1 | inactive |
| Cc1cccc(NC(=O)c2c(NC(=O)c3ccco3)sc3c2CCC(C)C3)c1 (stereo not given) | inconclusive: 14.6 µM [inhibitor, single point] |
| Cc1ccc(S(=O)(=O)N2CCN(c3nc(N(C)c4cc(Cl)ccc4O)nc4ccccc34)CC2)cc1 | inconclusive: 35.5 µM [inhibitor, single point] |
| O=C(NNC(=O)C12CC3CC(CC(C3)C1)C2)c1ccccn1 | active: 5.17 µM |
| Cc1c2cnn(-c3ccccc3)c(=O)c2c(C)n1C(C)C(=O)NCc1cccc(Br)c1 (stereo not given) | inconclusive: 29.1 µM [inhibitor, single point] |
| O=S(=O)(NCC1(N2CCOCC2)CCCCC1)c1ccc(Cl)cc1C(F)(F)F | inconclusive: 20.6 µM [inhibitor, single point] |
| CCOCCCn1c(=N)c(C(=O)NCc2ccccc2)cc2c(=O)n3ccccc3nc21 | inconclusive: 16.4 µM [inhibitor, single point] |
| O=C1c2cccc3cccc(c23)C(=O)N1c1ccccn1 | inactive |
| Cc1cc2c3c(ccc(C)c3n1)N=CN2c1ccccc1 | inconclusive: 23.1 µM [inhibitor, single point] |
| Cc1c(C(=O)N2CCOCC2)oc2ccc(S(=O)(=O)N3CCCCCC3)cc12 | inconclusive: 23.1 µM [inhibitor, partial curve, poor fit] |
| COc1ccc(COC[C@H](C)[C@H](O)[C@@H](C)[C@H]2OC(=O)[C@@H]2C)cc1 | inactive |
| C=CCN(C(=O)CNC(=O)c1ccco1)C(C(=O)NC1CCCC1)c1cccs1 (stereo not given) | inactive |
| O=C(Nc1ccc(CN2CCOCC2)cc1)c1ccc2ccccc2c1 | inconclusive: 18.4 µM [inhibitor, single point] |
| O=C(Nc1ccc2c(c1)OCO2)c1ccc(N2C(=O)c3ccccc3C2=O)cc1 | inactive |
| CCCN(CCC)C(=O)c1nn(C)c2c1CSc1ccccc1-2 | inconclusive: 20.6 µM [inhibitor, single point] |
| Cc1cc(C(=O)Nc2c(F)cc(F)cc2Br)n(-c2ccccc2)n1 | inactive |
| COC(=O)C1CCCCN1C(=O)c1ccc2oc(Cc3ccccc3)nc2c1 (stereo not given) | inconclusive: 18.4 µM [inhibitor, single point] |
| COc1cccc(CNC(=O)c2ccc3c(c2)nc2n3CCC(C)C2)c1 (stereo not given) | inactive |
| CCN(C(=O)CC(C)C)c1nnc(Cn2nnc3ccccc32)s1 | active: 20.6 µM |
| Cc1ccc(NC(=O)Cn2nc(-c3ccccc3)nc(Cc3ccccc3)c2=O)cc1 | inactive |
| O=S(=O)(c1ccc(F)cc1)c1snnc1-c1ccccc1 | active: 2.91 µM |
| CCCCNCCOCCOc1ccccc1-c1ccccc1 | active: 29.1 µM |
| O=c1c2ccccc2nc2ccc(NCc3cccs3)nn12 | inactive |
| COc1ccccc1N(CC(=O)N(C)Cc1ccccc1)S(=O)(=O)c1cccs1 | inactive |
| CC1CCN(CCCNc2cc(NCCO)c([N+](=O)[O-])c3nonc23)CC1 | inactive |
